Reference: patent US20260027220A1, “EPHA2 BCL-XL INHIBITOR ANTIBODY-DRUG CONJUGATES AND METHODS OF USE THEREOF” (Novartis AG, priority 2022, published 2026)
Numbering of substitutions follows the chain as printed. Names and notes keep the numbering of the source.

B1: G77S (antibody)
heavy: EVQLLESGGGLVQPGGSLRLSCAASGFTFSHYMMAWVRQAPGKGLEWVSRIGPSGGPTHYADSVKGRFTISRDNSKNTLYLQMNSLRAEDTAVYYCAGYDSGYDYVAVAGPAEYFQHWGQGTLVTVSSASTKGPSVFPLAPSSKSTSGGTAALGCLVKDYFPCPVTVSWNSGALTSGVHTFPAVLQSSGLYSLSSVVTVPSSSLGTQTYICNVNHKPSNTKVDKRV[not shown - human IgG1 Fc with S375C (EU numbers)]
light: DIQMTQSPSSLSASVGDRVTITCRASQSISTWLAWYQQKPGKAPKLLIYKASNLHTGVPSRFSGSGSGTEFSLTISSLQPDDFATYYCQQYNSYSRTFGQGTKVEIKRTVAAPSVFIFPPSDEQLKSGTASVVCLLNNFYPREAKVQWKVDNALQSGNSQESVTEQDSKDSTYSLSSTLTLSKADYEKHKVYACEVTHQGLSSPVTKSFNRGEC
B2: N92A (antibody)
heavy: B1 heavy
light: B1 light with S77G, N92A
B3: N92Q (antibody)
heavy: B1 heavy
light: B1 light with S77G, N92Q
B4: S10T (antibody)
heavy: B1 heavy
light: B1 light with S10T, S77G
B5: S72T (antibody)
heavy: B1 heavy
light: B1 light with S72T, S77G
B6: S93A (antibody)
heavy: B1 heavy
light: B1 light with S77G, S93A
B7: S93Q (antibody)
heavy: B1 heavy
light: B1 light with S77G, S93Q
B8: S93V (antibody)
heavy: B1 heavy
light: B1 light with S77G, S93V
B9: 3x germ (antibody)
heavy: B1 heavy
light: B1 light with S10T, S72T

What was measured:
Conditions in all cases: SPR Biacore 8k, anti-Fab capture, 37° C., 1:1 binding model
mouse EphA2 ectodomain = target: T1, mouse EphA2 ectodomain (Mus musculus, UniProt Q03145); assay: Biacore KD determination, mouse EphA2
T1 construct: The soluble human, mouse and cyno EphA2 ectodomain flowed over both flow cells
Method: (§1) Kinetic rate constants were determined via SPR using the Biacore 8k instrument (Cytiva, formerly GE Healthcare Lifesciences) as described below.
(§2) A human Fab capture method was utilized in order to determine kinetics for the antibodies. […] Each channel has two flow cells. The reference flow cell contained only immobilized anti-Fab, whereas the reaction flow cell captured anti-EphA2 IgG through anti-Fab. HBS-EP+ Buffer, pH 7.6 was used as the running buffer. The soluble human, mouse and cyno EphA2 ectodomain flowed over both flow cells on 8 channels. The EphA2 ectodomain concentration started at 50 nM and was serially diluted at one part to one part (1:1) in the running buffer for six concentrations. The analysis chamber was kept at 37° C. Regeneration was performed at the end of each sample washing with the solution of 10 mM Glycine-HCl, pH 2.1 provided in the kit.
(§3) The data were analysed using the Biacore Insight Evaluation Software. Double reference subtraction was completed to generate the final data. The raw data was fitted to a 1:1 binding model, with parameter(s) Rmax set to local.

cyno EphA2 ectodomain = target: T2, cyno EphA2 ectodomain (Macaca fascicularis, UniProt Q1KL86); assay: Biacore KD determination, cyno EphA2
T2 construct: The soluble human, mouse and cyno EphA2 ectodomain flowed over both flow cells
Method: as §1
A human Fab capture method was utilized in order to determine kinetics for the antibodies. The anti-Fab antibody used was provided in the Human Fab capture kit (Cytiva, cat #28958325) and was immobilized on all 8 channels of CM5 sensor chip according to the manufacturer's instructions. Each channel has two flow cells. The reference flow cell contained only immobilized anti-Fab, whereas the reaction flow cell captured anti-EphA2 IgG through anti-Fab. HBS-EP+ Buffer, pH 7.6 was used as the running buffer. The soluble human, mouse and cyno EphA2 ectodomain flowed over both flow cells on 8 channels. The EphA2 ectodomain concentration started at 50 nM and was serially diluted at one part to one part (1:1) in the running buffer for six concentrations. The analysis chamber was kept at 37° C. Regeneration was performed at the end of each sample washing with the solution of 10 mM Glycine-HCl, pH 2.1 provided in the kit.
as §3

human EphA2 ectodomain = target: T3, human EphA2 ectodomain (Homo sapiens, UniProt P29317); assay: Biacore KD determination, human EphA2
T3 construct: The soluble human, mouse and cyno EphA2 ectodomain flowed over both flow cells
Method: as §1, §2, §3

T1 sequence (Q03145 26-538 limits assumed): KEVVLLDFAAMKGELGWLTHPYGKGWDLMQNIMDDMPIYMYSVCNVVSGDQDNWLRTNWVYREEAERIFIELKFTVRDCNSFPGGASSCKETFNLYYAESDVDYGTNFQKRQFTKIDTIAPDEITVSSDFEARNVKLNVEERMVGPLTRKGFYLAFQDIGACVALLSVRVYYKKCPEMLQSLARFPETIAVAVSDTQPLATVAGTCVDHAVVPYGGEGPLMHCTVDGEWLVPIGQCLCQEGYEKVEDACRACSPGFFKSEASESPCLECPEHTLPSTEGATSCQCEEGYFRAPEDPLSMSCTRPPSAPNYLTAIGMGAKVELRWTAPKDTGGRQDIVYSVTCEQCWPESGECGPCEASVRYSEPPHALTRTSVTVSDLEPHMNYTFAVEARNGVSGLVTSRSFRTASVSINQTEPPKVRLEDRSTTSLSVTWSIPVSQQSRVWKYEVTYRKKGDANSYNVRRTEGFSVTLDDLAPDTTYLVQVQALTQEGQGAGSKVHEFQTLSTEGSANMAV
T2 sequence (Q1KL86 25-537 limits assumed): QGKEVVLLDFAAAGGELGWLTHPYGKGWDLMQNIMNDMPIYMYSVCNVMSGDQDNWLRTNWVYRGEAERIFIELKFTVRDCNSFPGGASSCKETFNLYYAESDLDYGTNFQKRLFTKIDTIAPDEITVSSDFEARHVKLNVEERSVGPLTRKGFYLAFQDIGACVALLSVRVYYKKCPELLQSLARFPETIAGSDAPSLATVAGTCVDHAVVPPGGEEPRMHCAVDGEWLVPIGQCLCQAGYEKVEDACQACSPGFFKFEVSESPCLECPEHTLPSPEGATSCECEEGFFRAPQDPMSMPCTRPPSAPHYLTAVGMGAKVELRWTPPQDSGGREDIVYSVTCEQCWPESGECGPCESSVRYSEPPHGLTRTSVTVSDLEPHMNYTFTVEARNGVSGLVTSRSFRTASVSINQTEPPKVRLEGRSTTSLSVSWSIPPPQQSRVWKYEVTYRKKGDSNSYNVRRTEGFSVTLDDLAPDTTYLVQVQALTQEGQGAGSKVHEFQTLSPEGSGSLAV
T3 sequence (P29317 24-537 limits assumed): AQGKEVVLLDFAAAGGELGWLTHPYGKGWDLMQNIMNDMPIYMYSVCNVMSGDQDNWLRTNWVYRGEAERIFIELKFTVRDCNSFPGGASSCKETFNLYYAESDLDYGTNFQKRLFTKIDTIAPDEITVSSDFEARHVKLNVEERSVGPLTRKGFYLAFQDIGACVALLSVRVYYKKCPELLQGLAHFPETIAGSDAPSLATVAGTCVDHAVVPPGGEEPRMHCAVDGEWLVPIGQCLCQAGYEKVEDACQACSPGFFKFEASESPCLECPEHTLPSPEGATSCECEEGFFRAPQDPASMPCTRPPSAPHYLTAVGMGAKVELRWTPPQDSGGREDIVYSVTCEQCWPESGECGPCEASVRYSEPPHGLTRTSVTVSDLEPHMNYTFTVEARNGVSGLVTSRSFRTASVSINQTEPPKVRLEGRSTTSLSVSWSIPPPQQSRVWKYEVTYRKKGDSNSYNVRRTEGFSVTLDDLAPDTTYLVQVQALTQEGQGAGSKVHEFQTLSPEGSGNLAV

Molecule	ka (mouse EphA2 ectodomain) [M⁻¹ s⁻¹]	kd (mouse EphA2 ectodomain) [s⁻¹]	ka (cyno EphA2 ectodomain) [M⁻¹ s⁻¹]	kd (cyno EphA2 ectodomain) [s⁻¹]	ka (human EphA2 ectodomain) [M⁻¹ s⁻¹]	kd (human EphA2 ectodomain) [s⁻¹]	KD (M) (mouse EphA2 ectodomain)	KD (M) (cyno EphA2 ectodomain)	KD (M) (human EphA2 ectodomain)
B1	163000	0.0603	661000	0.147	260000	0.0483			
B2							no binding	no binding	no binding
B3	172000	0.0661	313000	0.0719	271000	0.0531			
B4			531000	0.104					
B5	136000	0.0512	737000	0.17	240000	0.0518			
B6	182000	0.0625	697000	0.181	493000	0.131			
B7	165000	0.0552	1.24e+06	0.338	268000	0.0635			
B8	178000	0.0508	428000	0.105	296000	0.0792			
B9	193000	0.0635	886000	0.121	250000	0.0996			
